# PubChem BioAssay AID504332 (National Center for Advancing Translational Sciences (NCATS), 2011)
# In all, about 350,000 compounds went through this assay and about 31,000 (8.9%) were called active. Inconclusive means that the source gave no clear call. Such entries were picked first, then a sample of the others. The call rests on the fitted dose curve; in most records, active means well fitted inhibition curve with a large enough effect; inconclusive means small, poorly fitted or top-dose-only effect; inactive means no such curve, though single readings can be large or run the other way. Potencies of inconclusive entries are doubtful fits and often do not repeat.
# Biological target: Histone-lysine N-methyltransferase EHMT2 (Homo sapiens) (UniProt Q96KQ7)
# Assay: qHTS Assay for Inhibitors of Histone Lysine Methyltransferase G9a; further: nearly all actives have a fitted effect of over 75% in size
# Settings: G9a H3K9 monomethylation, AlphaScreen, 2 h; activity, negative = inhibition: at 59 µM (top of the series) unless noted
# Source text: Methylated lysines, on the N-terminal tails of histone proteins serve as epigenetic markers to recruit factors that can then modify local chromatin structure to lead to functional consequences. G9a and other members of the SUV39 family of the SET domain-containing superfamily of histone lysine methyltransferases (HMT) have been identified to specifically methylate Lys9 of histone H3 (H3K9). G9a catalyzes the mono- and di-methylation of H3K9 in mammalian euchromatic regions, where the resulting H3K9me2 is indicative of transcriptional repression. […] The inhibition of G9a will result in transcriptional activation and work synergistically with DNA methyltransferase and histone deacetylase inhibitors, to kill cancer cells. This qHTS assay for identification of G9a inhibitors is a chemiluminescence based AlphaScreen (PerkinElmer). Methylation of biotinylated-histone peptide is measured through specific antibody-based detection, in conjunction with streptavidin-coated donor and anti-IgG antibody-coated acceptor beads. The method is particularly well suited for detection of inhibitors acting by the desired histone peptide competitive mechanism and is applicable to testing other HMTs. Although AlphaScreen has significant advantages with its utility in a variety of epigenetic target assays, the primary screening data provided in this deposition should be used with caution due to the prevalence of screening artifacts. An AlphaScreen counterscreen is highly recommended to be run against any putative actives to eliminate non specific artifacts. Alternatively, one can use other AlphaScreen assays in PubChem to filter out promiscuous hits. Quinn et al. A chemiluminescence-based method for identification of histone lysine methyltransferase inhibitors. Mol Biosyst 6(5): 782-8. 2010. PMID: 20567762 [2] Baell,Holloway. New substructure filters for removal of pan assay interference compounds (PAINS) from screening libraries and for their exclusion in bioassays. J Med Chem. 53(7):2719-40. 2010. PMID: 20131845 NIH Molecular Libraries Probe Production Network [MLPCN] NIH Chemical Genomics Center [NCGC] Structural Genomics Consortium (SGC) NIH Grant: 5U54 MH084681-02
# To each well of a 1,536w plate, 2ul of HMT enzyme (final 20nM) were added, using a nanoliter dispenser. The G9a- and GLP-inhibitor BIX-01294 (CID: 25150857) are used as an intraplate control, with a 16-point titration in duplicate. A Kalypsys pin-tool transferred 23nl of library compound solution in DMSO to each well. Following a 15 min incubation of enzyme with compounds at room temperature, 1ul mixture of b-H3K9 peptide substrate (final 500nM) and SAM cofactor (final 20uM) were added. Reactions were allowed to proceed at room temperature for 2 hours. Methylated b-H3K9 peptide product was detected with 0.5 ug/mL rabbit polyclonal anti-monomethyl histone H3K9 antibody (Abcam Inc., Cambridge, MA) and 20 ug/mL each streptavidin-coated donor and anti-rabbit IgG acceptor AlphaScreen beads. Antibody and beads were added in a 1ul dispense, for a final volume of 4ul, and plates were incubated, protected from the light, for 10 min at room temperature. Microplates were then read on an EnVision multilabel plate reader using the 1,536 plate HTS AlphaScreen aperture (excitation time 80 ms, measurement time 240 ms).
# On the % scale 0 is the no-effect control and ±100 the full control effect; potency means the concentration at half of the fitted maximal effect; tags describe the fitted curve by direction and shape.
# Chain of UniProt Q96KQ7 (Q96KQ7 whole entry, looked up): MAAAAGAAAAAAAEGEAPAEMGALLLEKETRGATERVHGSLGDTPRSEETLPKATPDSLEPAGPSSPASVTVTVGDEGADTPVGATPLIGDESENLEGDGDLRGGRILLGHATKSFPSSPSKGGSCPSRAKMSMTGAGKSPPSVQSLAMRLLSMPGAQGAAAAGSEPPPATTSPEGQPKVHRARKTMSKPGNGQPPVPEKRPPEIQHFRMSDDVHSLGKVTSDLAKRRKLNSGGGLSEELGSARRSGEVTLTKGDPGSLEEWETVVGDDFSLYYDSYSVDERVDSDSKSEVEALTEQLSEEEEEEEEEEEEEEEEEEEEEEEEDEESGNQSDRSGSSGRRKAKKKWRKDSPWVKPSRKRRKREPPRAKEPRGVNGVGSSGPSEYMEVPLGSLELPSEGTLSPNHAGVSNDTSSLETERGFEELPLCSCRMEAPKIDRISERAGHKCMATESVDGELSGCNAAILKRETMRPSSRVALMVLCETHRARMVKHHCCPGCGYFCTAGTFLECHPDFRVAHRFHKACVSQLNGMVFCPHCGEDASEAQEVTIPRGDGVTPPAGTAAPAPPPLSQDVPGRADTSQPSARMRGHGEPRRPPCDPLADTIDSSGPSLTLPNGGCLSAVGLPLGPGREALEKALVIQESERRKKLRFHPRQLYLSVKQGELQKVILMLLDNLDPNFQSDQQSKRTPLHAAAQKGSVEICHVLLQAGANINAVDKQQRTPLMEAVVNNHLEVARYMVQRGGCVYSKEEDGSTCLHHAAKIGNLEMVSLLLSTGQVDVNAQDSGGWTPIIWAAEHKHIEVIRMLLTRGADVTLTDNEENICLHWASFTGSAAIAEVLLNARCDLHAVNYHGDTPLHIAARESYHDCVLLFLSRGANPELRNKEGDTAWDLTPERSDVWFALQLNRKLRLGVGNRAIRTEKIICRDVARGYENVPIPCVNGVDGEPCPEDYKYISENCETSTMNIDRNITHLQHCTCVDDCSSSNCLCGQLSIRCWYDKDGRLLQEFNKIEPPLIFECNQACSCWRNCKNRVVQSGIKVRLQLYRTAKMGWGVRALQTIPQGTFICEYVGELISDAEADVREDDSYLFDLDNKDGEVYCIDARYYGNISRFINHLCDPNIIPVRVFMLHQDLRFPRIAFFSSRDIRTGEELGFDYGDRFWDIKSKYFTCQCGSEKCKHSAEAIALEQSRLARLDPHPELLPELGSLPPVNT
SMILES,Potency,"activity, negative = inhibition"
CCOC(=O)C1=C(C)N=C2c3ccccc3C(=O)C2C1c1ccc(Br)cc1 (configuration not stated),"inconclusive: 17.8 µM [inhibitor, single point]",
NNC(=O)c1nnn(-c2nonc2N)c1CN1CCCC1,"inconclusive: 39.8 µM [inhibitor, partial curve]",
CC(C)c1nc2ccc(C(=O)NCCCN3CCN(c4ccccc4)CC3)cc2o1,,inactive: -7.3%
Cc1ccc(C)c(NC(=S)Nc2cccnc2)c1,,inactive: 29.9%
CC(=O)Nc1cccc(C(=O)OCc2ccccc2)c1,"inconclusive: 50.1 µM [inhibitor, partial curve]",
CCS(=O)(=O)N1CCC(C(=O)NCCN2CCN(Cc3ccccc3)CC2)CC1,"inconclusive: 89.1 µM [inhibitor, single point]",
O=C(CN1CCN(C(=O)N2CCOCC2)CC1)Nc1ccc(Br)cc1,"inconclusive: 39.8 µM [inhibitor, single point]",
O=c1c([N+](=O)[O-])c[nH]c2ccccc12,"inconclusive: 89.1 µM [inhibitor, single point]",
O=C(COc1ccc(Cl)cc1)NC1CC1,"inconclusive: 56.2 µM [inhibitor, partial curve, poor fit]",
CCc1nnc(NC(=O)CSc2nc(-c3ccc(OC)cc3)ns2)s1,"inconclusive: 25.1 µM [inhibitor, single point]",
COc1ccc(NC(=O)c2cccc(S(=O)(=O)N3CCN(c4ccccc4)CC3)c2)c(OC)c1,,inconclusive: -123% [inhibitor] [at 12.7 µM]
COc1ccccc1CCNCc1ccc(OC)c(OCc2ccccc2)c1,"inconclusive: 10 µM [inhibitor, partial curve, poor fit]",
CC(=O)c1ccc(OCC(=O)N2CCCC(Nc3ccc(C)c(C)c3)C2)cc1 (configuration not stated),,inactive: 44.1% [at 102 µM]
CNc1nc(N)c([N+](=O)[O-])c(NCc2ccccc2)n1,"inconclusive: 89.1 µM [inhibitor, partial curve, poor fit]",
COc1ccc(OC)c(NC(=O)NNS(=O)(=O)c2ccc(C)cc2C)c1,,inactive: 30% [at 102 µM]
CC(CC(=O)Nc1ccccc1)NCCCN1CCCC1=O (configuration not stated),active: 8.91 µM,
CCCCn1c(N)c(N(CC(C)C)C(=O)c2cccc(S(=O)(=O)N(C)c3ccccc3)c2)c(=O)[nH]c1=O,"inconclusive: 44.7 µM [inhibitor, partial curve]",
CCN(CC)c1ccc(NC(=O)Cn2c3ncccc3c(=O)n2-c2ccccc2)c(C)c1,"inconclusive: 7.08 µM [inhibitor, partial curve, poor fit]",
O=c1cc(N2CCN(Cc3ccccc3)CC2)[nH]c(=O)n1-c1ccc(Br)cc1,"inconclusive: 39.8 µM [inhibitor, single point]",
COc1ccc(-c2ccc(-c3nc4ccc(C)cn4c3NC3CCCCC3)cc2OC)cc1,,inactive: 0.35% [at 2.33 µM]
CN1CCN(CCCNC(=O)c2ccc(/C=C3/Sc4ccccc4N(Cc4cccc(Cl)c4)C3=O)cc2)CC1,active: 39.8 µM,
COC(=O)c1cc(S(=O)(=O)N2CCN(c3cc(Cl)ccc3C)CC2)c[nH]1,,inactive: -11.2%
Cc1ccc(C2(O)CN(c3ccccc3)C3=[N+]2CCS3)cc1 (configuration not stated),,inactive: 5.58% [at 102 µM]
NNc1cc([N+](=O)[O-])cc2c1C(=O)N(Cc1ccccc1)S2=O (configuration not stated),active: 2.82 µM,

SMILES,Potency,"activity, negative = inhibition"
O=c1c2c(-c3ccco3)csc2nc(SCc2cn3cccnc3n2)n1-c1ccccc1,"inconclusive: 25.1 µM [inhibitor, single point]",
CCOc1ccccc1Nc1nc(-c2sc(NC(=O)c3ccco3)nc2C)cs1,"inconclusive: 20 µM [inhibitor, partial curve]",
O=C1CNC(=O)/C1=C\N1CCCCC1,,inconclusive: -80.6% [inhibitor]
CCn1nc(C(=O)Nc2ccc(Cl)c(S(=O)(=O)N3CCOCC3)c2)c2ccccc2c1=O,"inconclusive: 89.1 µM [inhibitor, single point]",
COc1ccc(/C=C/c2cc(=O)c3cc(Cl)ccc3o2)cc1,"inconclusive: 79.4 µM [inhibitor, partial curve, poor fit]",
Cc1ccc(NC(=O)CCSc2ccccn2)cc1,"inconclusive: 39.8 µM [inhibitor, single point]",
FC(F)(F)c1ccc(Cl)c(-n2c(-c3cc(-c4ccco4)[nH]n3)n[nH]c2=S)c1,active: 15.8 µM,
COc1ccc(CNC(=O)c2cc3c(s2)CN(Cc2ccccc2)C3)cc1,"inconclusive: 44.7 µM [inhibitor, partial curve, poor fit]",
Cc1ccc2c(c1)-c1c(cnn1CC(=O)N1CCN(c3cc(C)ccc3C)CC1)CO2,,inactive: -1.06%
O=C(COc1cccc(C(F)(F)F)c1)N1CCN(c2ccccc2O)CC1,,inactive: -82%
Cc1ccccc1CNC(=O)C(=O)NCC(c1ccc2c(c1)OCO2)N1CCOCC1 (configuration not stated),,inactive: -1.82%
CCCCn1c(N)c(N(CC(C)C)C(=O)c2cc(-c3ccncc3)nc3ccccc23)c(=O)[nH]c1=O,active: 56.2 µM,
CCOC(=O)c1[nH]c(C)c(C(=O)OCC(=O)N(CC)C2CCS(=O)(=O)C2)c1C (configuration not stated),"inconclusive: 2 µM [inhibitor, full curve, poor fit]",
O=C(NCCCN1CCOCC1)c1c(O)c2ccccc2[nH]c1=O,active: 50.1 µM,
COc1cccc(-c2nn(C)c3sc(C(=O)NCc4ccc(C)o4)cc23)c1,"inconclusive: 3.16 µM [inhibitor, partial curve, poor fit]",
CN1CCN(Cc2ccc(OCc3ccccc3)cc2)CC1,,inactive: 6.47%
O=C(O)/C(=C\c1cccc(O)c1)c1ccc(S(=O)(=O)N2CCCC2)s1,"inconclusive: 25.1 µM [inhibitor, single point]",
Cc1ccc(C(C)C)c(OCc2ccc(C(=O)N/N=C/c3ccc(O)c(O)c3)cc2)c1,"inconclusive: 8.91 µM [inhibitor, partial curve, poor fit]",
O=C(NCc1ccco1)C(c1cccnc1)N(C(=O)Cn1nnc2ccccc21)c1ccccc1 (configuration not stated),"inconclusive: 25.1 µM [inhibitor, single point]",
CCN(CC)CCn1c2c(c(SCC(=O)Nc3cccc4ccccc34)nc1=O)CCCC2,active: 12.6 µM,
COc1ccc(/C=C/C(=O)OCC(=O)Nc2ccc(N3CCOCC3)cc2)cc1OC,,inactive: -16.4% [at 102 µM]
C[C@H]1CN=C(N(C)C)N1CC1CCC(C(C)(C)C)CC1 (some centres not stated),,inactive: -1.12% [at 12.7 µM]
COc1cc(/C=C/C(=O)OCC(=O)Nc2ccc(C)c(S(=O)(=O)N3CCCCC3)c2)ccc1O,"inconclusive: 15.8 µM [inhibitor, single point]",
CC(C)Nc1ccc(Nc2ccnc3cc4ccccc4cc23)cc1,active: 8.91 µM,

SMILES,Potency,"activity, negative = inhibition"
COc1ccc(C2(CNS(=O)(=O)c3ccccc3)CCOCC2)cc1,,inactive: 11.2% [at 102 µM]
CCC1CCCCN1CCN1C(=O)C2C(C(=O)Nc3ccc(OC)cc3)C3C=CC2(O3)C1C(=O)NC1CCCCC1 (configuration not stated),"inconclusive: 89.1 µM [inhibitor, single point]",
Oc1ccc2ccccc2c1CNc1ccc(Br)cc1,active: 5.01 µM,
Brc1cccc(OCCCN2CCCCCC2)c1,active: 10 µM,
COC(=O)CSc1nnc(SCc2ccc(OC)cc2)s1,"inconclusive: 39.8 µM [inhibitor, single point]",
N#Cc1c(SCC(=O)Nc2nc3ccc(Br)cc3s2)sc2c(O)cc(=O)[nH]c12,active: 39.8 µM,
Cc1nc(N2CCOCC2)c2c(C(=O)N(C)c3ccccc3)c(C)oc2n1,,inactive: -22.1%
CC1CCN(C(=O)c2cccc(NC(=O)c3cccs3)c2)CC1,"inconclusive: 89.1 µM [inhibitor, single point]",
COc1cccc(OC)c1C(=O)Nc1ccccc1NC(=O)c1c(OC)cccc1OC,active: 79.4 µM,
COc1ccc(-c2nc(CC(=O)O)cs2)cc1,"inconclusive: 89.1 µM [inhibitor, single point]",
CCOc1ccc(-c2cn3c(n2)sc2cc(C(=O)N4CCCC(C)C4)ccc23)cc1 (configuration not stated),,inactive: 16.4%
CCCN1CCN(CCCNC(=O)c2ccc3c(c2)sc2nc(-c4ccc(OCC)cc4)cn23)CC1,"inconclusive: 39.8 µM [inhibitor, single point]",
COc1ccc(N(CC(=O)N2CCc3ccccc3C2)S(C)(=O)=O)cc1OC,"inconclusive: 14.1 µM [inhibitor, partial curve, poor fit]",
CN(CC(=O)Nc1cccc(F)c1)CC(=O)Nc1cccc(S(N)(=O)=O)c1,,inconclusive: -86.3% [inhibitor]
COc1ccc(NC(=O)NC2CCCCCCC2)c(OC)c1,"inconclusive: 17.8 µM [inhibitor, full curve]",
CCN(CC)c1ccc(-c2nnc(SCC(=O)Nc3ccccc3C#N)n2-c2ccccc2)cc1,active: 10 µM,
CCN1CCN(CC(O)COc2cccc(OC)c2)CC1 (configuration not stated),active: 56.2 µM,
COc1cc2nc(N3CCN(c4cc(C)ccc4C)CC3)nc(N)c2cc1OC,active: 50.1 µM,
COc1cccc(NC(=O)CS(=O)(=O)Cc2nc(-c3ccc(C)cc3)oc2C)c1,,inactive: 7.5% [at 102 µM]
COc1ccc(OC)c(S(=O)(=O)Nc2cc3c4c(c2)CCC(=O)N4CCC3)c1,,inactive: -42.5% [at 102 µM]
Cc1[nH][nH]c(=O)c1C(c1ccccc1[N+](=O)[O-])C(C#N)C#N (configuration not stated),active: 39.8 µM,
NS(=O)(=O)c1ccc(CNC(=O)c2cnccn2)cc1,"inconclusive: 0.282 µM [inhibitor, full curve]",
CCOC(=O)C1CCCN(c2ncnc3c2oc2ccccc23)C1 (configuration not stated),"inconclusive: 79.4 µM [inhibitor, single point]",
CC1CCN(Cc2nnnn2-c2cccc([N+](=O)[O-])c2)CC1,"inconclusive: 1.26 µM [inhibitor, partial curve, poor fit]",
